The supplement of paper PMC12217912
The other results are listed elsewhere or left out. Sequences were assembled here from the parent chain. Values near 0.05 are background.

B1: TEV protease; numbered along this chain (parent)
chain: MGESLFKGPRDYNPISSSICHLTNESDGHTTSLYGIGFGPFIITNKHLFRRNNGTLVVQSLHGVFKVKDTTTLQQHLVDGRDMIIIRMPKDFPPFPQKLKFREPQREERICLVTTNFQTKSMSSMVSDTSCTFPSGDGIFWKHWIQTKDGQCGSPLVSTRDGFIVGIHSASNFTNTNNYFTSVPKNFMELLTNQEAQQWVSGWRLNADSVLWGGHKVFMVKPEEPFQPVKEATQL

Variants of: B1
Test: raw area under fraction-flipped curve 0-4 h after induction (AUC4h, not background-subtracted), DNA-recorder readout of cleavage of the substrate (dimensionless); higher = more cleavage of the substrate by the protease variant
Conditions: temperature: 34 °C; time window: 0-4 h after rhamnose induction
Description: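 In vivo DNA recorder in E. coli TOP10(DE3) ΔrhaA at 34 °C. Each TEVp single-site mutant (parent TEVp 0) is paired with a single-site variant of the 7-mer TEVs (canonical ENLYFQ|S). The substrate sits between flexible linkers in a Bxb1-sfGFP-TEVs-SsrA fusion, so cleavage stabilises Bxb1 and speeds flipping of a recombination array, read by NGS. The value is the raw area under the fraction-flipped curve over 0-4 h after rhamnose induction (AUC4h), with ≥20 reads per time point. It is not background-subtracted; inactive controls average about 0.047.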
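Note: Bxb1 expression induced with 0.2% (w/v) L-rhamnose at OD600 near 0.5, cultures sampled hourly, flipped fraction per protease–substrate barcode pair counted by paired-end Illumina sequencing.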

Q: For MGESLFKGPRDYNPISSSICHLTNESDGHTTSLYGIGFGPFIITNKHLFRRNNGTLVVQSLHGVFKVKDTTTLQAHLVDGRDMIIIRMPKDFPPFPQKLKFREPQREERICLVTTNFQTKSMSSMVSDTSCTFPSGDGIFWKHWIQTKDGQCGSPLVSTRDGFIVGIHSASNFTNTNNYFTSVPKNFMELLTNQEAQQWVSGWRLNADSVLWGGHKVFMVKPEEPFQPVKEATQL [Q75A], which “area with substrate ENLYFQC” value is on record?
A: 0.0895

Q: What about the “area with substrate ENLYFQF” value of the same variant?
A: 0.069

Q: And the “area with substrate ENLYFQG” value?
A: 0.0909

Q: What about the “area with substrate ENLYFQI” value of the same variant?
A: 0.0457

Q: What about the “area with substrate ENLYFQK” value of the same variant?
A: 0.0588

Q: And the “area with substrate ENLYFQL” value?
A: 0.0663

Q: What about the “area with substrate ENLYFQM” value of the same variant?
A: 0.0828

Q: What about the “area with substrate ENLYFQN” value of the same variant?
A: 0.0778

Q: And the “area with substrate ENLYFQP” value?
A: 0.0661

Q: And the “area with substrate ENLYFQQ” value?
A: 0.0883

Q: What about the “area with substrate ENLYFQR” value of the same variant?
A: 0.0564

Q: What about the “area with substrate ENLYFQS” value of the same variant?
A: 0.105

Q: And the “area with substrate ENLYFQW” value?
A: 0.0677

Q: For MGESLFKGPRDYNPISSSICHLTNESDGHTTSLYGIGFGPFIITNKHLFRRNNGTLVVQSLHGVFKVKDTTTLQQDLVDGRDMIIIRMPKDFPPFPQKLKFREPQREERICLVTTNFQTKSMSSMVSDTSCTFPSGDGIFWKHWIQTKDGQCGSPLVSTRDGFIVGIHSASNFTNTNNYFTSVPKNFMELLTNQEAQQWVSGWRLNADSVLWGGHKVFMVKPEEPFQPVKEATQL [H76D], which “area with substrate ENLYFQC” value is on record?
A: 0.0724

Q: And the “area with substrate ENLYFQG” value?
A: 0.0674

Q: What about the “area with substrate ENLYFQH” value of the same variant?
A: 0.063

Q: What about the “area with substrate ENLYFQI” value of the same variant?
A: 0.0483

Q: And the “area with substrate ENLYFQK” value?
A: 0.0565

Q: And the “area with substrate ENLYFQM” value?
A: 0.0549

Q: And the “area with substrate ENLYFQN” value?
A: 0.0625

Q: And the “area with substrate ENLYFQQ” value?
A: 0.0649

Q: What about the “area with substrate ENLYFQR” value of the same variant?
A: 0.0591

Q: What about the “area with substrate ENLYFQS” value of the same variant?
A: 0.0669

Q: And the “area with substrate ENLYFQW” value?
A: 0.0522

Q: And the “area with substrate ENLYFQY” value?
A: 0.0592

Q: With MGESLFKGPRDYNPISSSICHLTNESDGHTTSLYGIGFGPFIITNKHLFRRNNGTLVVQSLHGVFKVKDTTTLQQLLVDGRDMIIIRMPKDFPPFPQKLKFREPQREERICLVTTNFQTKSMSSMVSDTSCTFPSGDGIFWKHWIQTKDGQCGSPLVSTRDGFIVGIHSASNFTNTNNYFTSVPKNFMELLTNQEAQQWVSGWRLNADSVLWGGHKVFMVKPEEPFQPVKEATQL [H76L] as the variant, how does the “area with substrate ENLYFQC” value read?
A: 0.0964

Q: And the “area with substrate ENLYFQF” value?
A: 0.098

Q: What about the “area with substrate ENLYFQG” value of the same variant?
A: 0.0733

Q: And the “area with substrate ENLYFQI” value?
A: 0.0618

Q: What about the “area with substrate ENLYFQK” value of the same variant?
A: 0.071

Q: And the “area with substrate ENLYFQL” value?
A: 0.0648

Q: And the “area with substrate ENLYFQN” value?
A: 0.0741

Q: And the “area with substrate ENLYFQS” value?
A: 0.118

Q: And the “area with substrate ENLYFQT” value?
A: 0.0702

Q: And the “area with substrate ENLYFQW” value?
A: 0.064

Q: What about the “area with substrate ENLYFQY” value of the same variant?
A: 0.0759

Q: Which results are given for MGESLFKGPRDYNPISSSICHLTNESDGHTTSLYGIGFGPFIITNKHLFRRNNGTLVVQSLHGVFKVKDTTTLQQMLVDGRDMIIIRMPKDFPPFPQKLKFREPQREERICLVTTNFQTKSMSSMVSDTSCTFPSGDGIFWKHWIQTKDGQCGSPLVSTRDGFIVGIHSASNFTNTNNYFTSVPKNFMELLTNQEAQQWVSGWRLNADSVLWGGHKVFMVKPEEPFQPVKEATQL [H76M]?
A: area with substrate ENLYFQC: 0.123; area with substrate ENLYFQD: 0.113; area with substrate ENLYFQG: 0.103; area with substrate ENLYFQI: 0.064; area with substrate ENLYFQK: 0.0699; area with substrate ENLYFQL: 0.0535; area with substrate ENLYFQM: 0.128; area with substrate ENLYFQN: 0.0957; area with substrate ENLYFQP: 0.0404; area with substrate ENLYFQQ: 0.0817; area with substrate ENLYFQR: 0.0538; area with substrate ENLYFQS: 0.103; area with substrate ENLYFQT: 0.0723; area with substrate ENLYFQV: 0.0575; area with substrate ENLYFQW: 0.066; area with substrate ENLYFQY: 0.0798

Q: For MGESLFKGPRDYNPISSSICHLTNESDGHTTSLYGIGFGPFIITNKHLFRRNNGTLVVQSLHGVFKVKDTTTLQQHLVWGRDMIIIRMPKDFPPFPQKLKFREPQREERICLVTTNFQTKSMSSMVSDTSCTFPSGDGIFWKHWIQTKDGQCGSPLVSTRDGFIVGIHSASNFTNTNNYFTSVPKNFMELLTNQEAQQWVSGWRLNADSVLWGGHKVFMVKPEEPFQPVKEATQL [D79W], which “area with substrate ENLYFQC” value is on record?
A: 0.0904

Q: And the “area with substrate ENLYFQD” value?
A: 0.0796

Q: And the “area with substrate ENLYFQG” value?
A: 0.116

Q: What about the “area with substrate ENLYFQH” value of the same variant?
A: 0.0807

Q: And the “area with substrate ENLYFQI” value?
A: 0.0438

Q: What about the “area with substrate ENLYFQL” value of the same variant?
A: 0.0648

Q: What about the “area with substrate ENLYFQM” value of the same variant?
A: 0.0949

Q: And the “area with substrate ENLYFQN” value?
A: 0.0782

Q: And the “area with substrate ENLYFQP” value?
A: 0.0489

Q: And the “area with substrate ENLYFQR” value?
A: 0.0866

Q: And the “area with substrate ENLYFQS” value?
A: 0.0886

Q: What about the “area with substrate ENLYFQT” value of the same variant?
A: 0.0478

Q: And the “area with substrate ENLYFQV” value?
A: 0.0538

Q: And the “area with substrate ENLYFQW” value?
A: 0.0696

Q: With MGESLFKGPRDYNPISSSICHLTNESDGHTTSLYGIGFGPFIITNKHLFRRNNGTLVVQSLHGVFKVKDTTTLQQHLVDGRHMIIIRMPKDFPPFPQKLKFREPQREERICLVTTNFQTKSMSSMVSDTSCTFPSGDGIFWKHWIQTKDGQCGSPLVSTRDGFIVGIHSASNFTNTNNYFTSVPKNFMELLTNQEAQQWVSGWRLNADSVLWGGHKVFMVKPEEPFQPVKEATQL [D82H] as the variant, how does the “area with substrate ENLYFQC” value read?
A: 0.0544

Q: What about the “area with substrate ENLYFQF” value of the same variant?
A: 0.0591

Q: And the “area with substrate ENLYFQH” value?
A: 0.0564

Q: And the “area with substrate ENLYFQI” value?
A: 0.0536

Q: And the “area with substrate ENLYFQL” value?
A: 0.0555

Q: And the “area with substrate ENLYFQN” value?
A: 0.0683

Q: What about the “area with substrate ENLYFQR” value of the same variant?
A: 0.0206

Q: What about the “area with substrate ENLYFQS” value of the same variant?
A: 0.0569

Q: What about the “area with substrate ENLYFQT” value of the same variant?
A: 0.0563

Q: Which results are given for MGESLFKGPRDYNPISSSICHLTNESDGHTTSLYGIGFGPFIITNKHLFRRNNGTLVVQSLHGVFKVKDTTTLQQHLVDGRDMAIIRMPKDFPPFPQKLKFREPQREERICLVTTNFQTKSMSSMVSDTSCTFPSGDGIFWKHWIQTKDGQCGSPLVSTRDGFIVGIHSASNFTNTNNYFTSVPKNFMELLTNQEAQQWVSGWRLNADSVLWGGHKVFMVKPEEPFQPVKEATQL [I84A]?
A: area with substrate ENLYFQC: 0.0614; area with substrate ENLYFQG: 0.103; area with substrate ENLYFQH: 0.0722; area with substrate ENLYFQI: 0.0434; area with substrate ENLYFQK: 0.0506; area with substrate ENLYFQL: 0.0664; area with substrate ENLYFQM: 0.0709; area with substrate ENLYFQP: 0.0335; area with substrate ENLYFQR: 0.0621; area with substrate ENLYFQS: 0.0787; area with substrate ENLYFQT: 0.0625; area with substrate ENLYFQW: 0.0624; area with substrate ENLYFQY: 0.0555

Q: What does the source list for MGESLFKGPRDYNPISSSICHLTNESDGHTTSLYGIGFGPFIITNKHLFRRNNGTLVVQSLHGVFKVKDTTTLQQHLVDGRDMITIRMPKDFPPFPQKLKFREPQREERICLVTTNFQTKSMSSMVSDTSCTFPSGDGIFWKHWIQTKDGQCGSPLVSTRDGFIVGIHSASNFTNTNNYFTSVPKNFMELLTNQEAQQWVSGWRLNADSVLWGGHKVFMVKPEEPFQPVKEATQL [I85T]?
A: area with substrate ENLYFQC: 0.0417; area with substrate ENLYFQD: 0.0372; area with substrate ENLYFQI: 0.0414; area with substrate ENLYFQL: 0.0437; area with substrate ENLYFQM: 0.0483; area with substrate ENLYFQN: 0.0577; area with substrate ENLYFQP: 0.0315; area with substrate ENLYFQR: 0.0575; area with substrate ENLYFQS: 0.0639; area with substrate ENLYFQT: 0.0474; area with substrate ENLYFQW: 0.0525

Q: For MGESLFKGPRDYNPISSSICHLTNESDGHTTSLYGIGFGPFIITNKHLFRRNNGTLVVQSLHGVFKVKDTTTLQQHLVDGRDMIIIHMPKDFPPFPQKLKFREPQREERICLVTTNFQTKSMSSMVSDTSCTFPSGDGIFWKHWIQTKDGQCGSPLVSTRDGFIVGIHSASNFTNTNNYFTSVPKNFMELLTNQEAQQWVSGWRLNADSVLWGGHKVFMVKPEEPFQPVKEATQL [R87H], which “area with substrate ENLYFQC” value is on record?
A: 0.13

Q: And the “area with substrate ENLYFQI” value?
A: 0.0539

Q: And the “area with substrate ENLYFQM” value?
A: 0.0832

Q: And the “area with substrate ENLYFQN” value?
A: 0.0682

Q: What about the “area with substrate ENLYFQS” value of the same variant?
A: 0.105

Q: What does the source list for MGESLFKGPRDYNPISSSICHLTNESDGHTTSLYGIGFGPFIITNKHLFRRNNGTLVVQSLHGVFKVKDTTTLQQHLVDGRDMIIIRMLKDFPPFPQKLKFREPQREERICLVTTNFQTKSMSSMVSDTSCTFPSGDGIFWKHWIQTKDGQCGSPLVSTRDGFIVGIHSASNFTNTNNYFTSVPKNFMELLTNQEAQQWVSGWRLNADSVLWGGHKVFMVKPEEPFQPVKEATQL [P89L]?
A: area with substrate ENLYFQC: 0.106; area with substrate ENLYFQF: 0.0987; area with substrate ENLYFQG: 0.0903; area with substrate ENLYFQH: 0.0534; area with substrate ENLYFQL: 0.0516; area with substrate ENLYFQS: 0.0707; area with substrate ENLYFQT: 0.0559; area with substrate ENLYFQV: 0.0348
